Laboratory results reported in PubChem BioAssay AID894 (National Center for Advancing Translational Sciences (NCATS), 2007).
The whole screen tested about 150,000 compounds, of which about 6,500 (4.3%) were called active. This list was built around the results that the source calls inconclusive (neither active nor inactive); the mix of calls is not that of the screen. The call rests on the fitted dose curve; in most records, active means well fitted inhibition curve with a large enough effect (not every such curve was filed as active); inconclusive means small, poorly fitted or top-dose-only effect, or another doubt; inactive means no such curve, though single readings can be large or run the other way. No potency is given beside an inconclusive call; the fits are too rough.

target: 15-hydroxyprostaglandin dehydrogenase [NAD(+)] (Homo sapiens) (UniProt P15428); test: qHTS Assay for Inhibitors of HPGD (15-Hydroxyprostaglandin Dehydrogenase); conditions: purified HPGD, NADH fluorescence kinetic, PGE2 substrate; activity change, negative = inhibition: hits give low values
Summary of the method: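 NADH formation kinetics: reaction with 30 uM PGE2 and 1 mM NAD+ (final), 20 nM enzyme, Tris-HCl pH 8 with Tween 20, after 15 min compound preincubation at room temperature. Fluorescence change, last versus first of five reads.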
On the % scale 0 is the no-effect control and ±100 the full control effect; potency means the concentration at half of the fitted maximal effect; tags describe the fitted curve by direction and shape.

UniProt P15428, sequence (P15428 whole entry, looked up): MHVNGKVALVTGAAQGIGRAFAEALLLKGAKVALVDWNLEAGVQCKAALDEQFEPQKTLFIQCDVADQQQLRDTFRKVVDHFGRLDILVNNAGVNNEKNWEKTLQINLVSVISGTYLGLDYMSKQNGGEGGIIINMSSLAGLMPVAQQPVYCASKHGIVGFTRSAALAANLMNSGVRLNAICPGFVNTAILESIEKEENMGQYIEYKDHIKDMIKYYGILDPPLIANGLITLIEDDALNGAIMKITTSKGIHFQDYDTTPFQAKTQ

| SMILES | Potency | activity change, negative = inhibition |
| --- | --- | --- |
| CCN(CCO)c1ncnc2c1sc1nc(CC(C)C)c3c(c12)CC(C)(C)OC3 | inconclusive [inhibitor, partial curve] |  |
| N#CC(Nc1ccccc1)c1ccccc1OCc1ccccc1 (configuration not stated) |  | inactive: -15.5% |
| Cc1cc(SCC(=O)c2cc3ccccc3o2)nc2ccccc12 | active: 35.5 µM |  |
| Cc1ccc(Cl)cc1NC(=O)Cn1cccc1 |  | inactive: -15.4% |
| COc1ccc(-c2nc3ccccc3c(=O)n2CCOc2c(C)cccc2C)cc1 | inconclusive [inhibitor, partial curve] |  |
| CC(C)Cc1nc(C(N)=O)c2[nH]c(=O)n(-c3ccc(F)cc3)c2n1 | inconclusive [inhibitor, partial curve] |  |
| Cc1ccccc1N1CCN(CCCN2C(=O)CC(=C(c3ccccc3)c3ccccc3)C2=O)CC1 | inconclusive [inhibitor, partial curve] |  |
| COc1ccc(N2COC3c4cccc5cccc(c45)C32)cc1 (configuration not stated) |  | inactive: -19.6% |
| COc1ccc(CC(=O)OCn2nnc3ccccc3c2=O)cc1 | inconclusive [inhibitor, single point] |  |
| COC(=O)c1ccc2[nH]c(C)cc(=O)c2c1 | inconclusive [inhibitor, partial curve] |  |
| COC(=O)c1c(C)n(-c2ccc(OC)cc2)c2ccc(O)cc12 | inconclusive [inhibitor, partial curve] |  |
| CCCC(=O)NC(=S)Nc1ccc(C(C)=O)cc1 | inconclusive [inhibitor, partial curve] |  |
| COc1ccc2c(CC(=O)OCC(=O)Nc3sc4c(c3C#N)CCC(C)C4)coc2c1 (configuration not stated) |  | inactive: -19.4% |
| CCOc1ccc(NC(=O)N[C@@H](CCSC)C(=O)OC)cc1 |  | inactive: 0.0552% |
| CCN(CC)S(=O)(=O)c1cccc(NC(=O)Nc2cccc(C(F)(F)F)c2)c1 |  | inactive: -17% |
| CC1CCc2c(C(=O)N3CCN(S(=O)(=O)c4cccs4)CC3)csc2C1 (configuration not stated) |  | inactive: -7.7% |
| COc1ccccc1C(C)NCC(=O)Nc1ccccc1C(F)(F)F (configuration not stated) | inconclusive [inhibitor, partial curve] |  |
| CCOc1ccccc1C1C(C(N)=O)=C(C)Nc2nc(CCCO)nn21 (configuration not stated) |  | inactive: -10.5% |
| CCOC(=O)C1CCCN(C(=O)c2cn(CC)c(=O)c3cc(OC)c(OC)cc23)C1 (configuration not stated) |  | inactive: -9.19% |
| Cc1cccc(CSCCNC(=S)Nc2ccccc2)c1 | inconclusive [inhibitor, partial curve] |  |
| CCc1nc(N2CCN(Cc3ccc4c(c3)OCO4)CC2)c2oc3ccccc3c2n1 | inconclusive [inhibitor, partial curve] |  |
| Cc1ccc(Nc2nc(N3CCN(C)CC3)nc(N)c2[N+](=O)[O-])cc1C | inconclusive [inhibitor, partial curve] |  |
| O=C(CN1CCCC1)Nc1ccccc1Cl | inconclusive [inhibitor, single point] |  |
| O=C(O)CC(c1cccc2ccccc12)n1cccc1 (configuration not stated) | active: 35.5 µM |  |

| SMILES | Potency | activity change, negative = inhibition |
| --- | --- | --- |
| Cc1cc(-c2n[nH]c(=S)n2/N=C/c2ccc(Cl)c([N+](=O)[O-])c2)n[nH]1 | active: 7.94 µM |  |
| Cc1cc(C)nc(/N=C2\NC(=O)CC(C(=O)O)N2c2ccc(Oc3ccccc3)cc2)n1 (configuration not stated) | active: 12.6 µM |  |
| COC(=O)c1c(C)c(C)nc(N)c1C#N | inconclusive [inhibitor, partial curve] |  |
| O=C(Nc1cccc(S(=O)(=O)NC2=NCCCCC2)c1)c1cc(-c2ccccc2Cl)nc2ccccc12 | inconclusive [inhibitor, single point] |  |
| COc1ccc(S(=O)(=O)Nc2ccccc2C(=O)NCc2ccco2)cc1 | inconclusive [inhibitor, partial curve] |  |
| Oc1ccccc1CNc1cnc2ccccc2c1 | inconclusive [inhibitor, partial curve] |  |
| N=C1/C(=C/c2cccn2Cc2ccc(Cl)cc2)C(=O)N=C2SC=CN12 | inconclusive [inhibitor, partial curve] |  |
| Cc1ccc(S(=O)(=O)NCc2ccccc2)cc1 |  | inactive: -17.9% |
| O=C(NC(=S)Nc1ccc(Cc2ccncc2)cc1)c1ccccc1 | inconclusive [inhibitor, single point] |  |
| COC(=O)c1ccc2c(c1)c(C#Cc1ccccc1)c(-c1ccccc1)n2C | inconclusive [inhibitor, full curve] |  |
| O=C(NCC1CCCO1)c1csc2c1CCCCC2 (configuration not stated) | active: 25.1 µM |  |
| CC1(C)Oc2ccc(C(=O)N3CCc4ccccc43)cc2N(CC(=O)N2CCCC2)C1=O |  | inactive: -5.82% |
| Cc1ccc2nc(-c3ccc(NC(=O)COC(=O)c4ccc(=O)[nH]c4)cc3)sc2c1 | inconclusive [inhibitor, partial curve] |  |
| CN(C(=O)COc1cc(=O)n(C)c2ccccc12)c1ccc(Cl)cc1 |  | inactive: -9.02% |
| COc1cc(OC)cc(-c2nc3ccccc3c(=O)o2)c1 | inconclusive [inhibitor, partial curve] |  |
| O=C(Cn1nnc(-c2ccccc2F)n1)Nc1ccc(C(=O)N2CCOCC2)cc1 | active: 39.8 µM |  |
| Oc1c(Cl)cc(Cl)c2cccnc12 |  | inactive: -19.7% |
| O=C(NCc1ccccc1)C(=O)NCC1COc2ccccc2O1 (configuration not stated) |  | inactive: -0.0229% |
| CC(=O)c1sc(Nc2nc3ccc(F)cc3s2)nc1C | inconclusive [inhibitor, partial curve] |  |
| Cc1ccc(N(C(=O)Cn2nnc(-c3ccccc3)n2)C(C(=O)NC2CCCCC2)c2ccccn2)cc1C (configuration not stated) |  | inactive: -0.843% |
| O=C(CSc1nnc(SCc2ccccc2)s1)N/N=C/C=C/c1ccco1 | active: 28.2 µM |  |
| CCOC(=O)N1CCC(N(C(=O)Nc2ccc(Cl)c(Cl)c2)C(C)CC)CC1 (configuration not stated) | active: 20 µM |  |
| O=C(OC1CCN(c2ncc(C(F)(F)F)cc2Cl)CC1)c1cccc(C(F)(F)F)c1 | inconclusive [inhibitor, partial curve, poor fit] |  |
